The record followed here is PubChem BioAssay AID463173 (ICCB-Longwood Screening Facility, Harvard Medical School, 2010).

The whole screen tested about 52,000 compounds, of which about 1,700 (3.3%) were called active. No stated cut-off is given here; in the data, active means survival mostly below about 52% (no sharp cut-off); inactive means mostly above about 56%. The list shows a part of the results.

This assay relates to Wild type. The assay can be described thus: growth inhibition of S. aureus wild type versus tarO mutant, primary screen, teichoic acid synthesis inhibitors, RN4220, OD600 (AID 463173). To be noted: S. aureus RN4220 wild type/DeltatarO growth, OD600, 18 h, active compounds read low, screened at 18.75 µg/mL (by protocol).
For the compound `Cc1ccc(-c2noc(C3CCN(C(=O)Nc4ccc(C#N)cc4)CC3)n2)o1`, the survival is inactive: 102%. Next, `CCc1ccc2nc(SCC(=O)N3CC(=O)Nc4ccccc43)c(C#N)cc2c1`: inactive: 113%; `CC(C)OC(=O)/C(C#N)=C/c1ccc(-c2ccc(Cl)c(Cl)c2)o1`: inactive: 78%. Turning to `COC(=O)c1ccc(CSc2nnc(-c3ccccc3)o2)o1`, the survival is inactive: 113%.

With `CCOC(=O)c1cc(-c2ccccc2)n(-c2cccc(C(=O)N(C)c3ccc(C)cc3)c2)c1C`, the survival is inactive: 73%. The figure for `CN1CCN(Cc2nc(N)nc(Nc3ccccc3)n2)CC1` is inactive: 104%; for `CC(C)C1Oc2ccccc2N(CC(=O)N(CCCN2CCOCC2)Cc2ccc(F)cc2)C1=O` (stereo not given) it is inactive: 117%. Regarding `Fc1ccc(N2CCN(Cc3cccn3-c3nnc(N4CCN(C5CCCCC5)CC4)s3)CC2)cc1`, the survival is inactive: 128%. The figure for `Cc1ccc(NC(=O)C2CCCN(c3cnccn3)C2)c(C)c1` (stereo not given) is inactive: 92%. For the compound `CCc1ccc(-c2nc(CSCC(=O)N3CCN(c4ccc(F)cc4)CC3)c(C)o2)cc1`, the survival was inactive: 77%.

As to `O=C(Oc1ccccc1)c1ccc(-n2cnnn2)cc1`, the survival is inactive: 100%. Next, `CCc1ccccc1NC(=O)c1cc2c(Cl)nc3ccccc3c2s1`: inactive: 68%; `CC(C)(CO)NC(=O)c1cc(-c2ccc(Cl)cc2Cl)on1`: inactive: 123%; `CCOC(=O)c1ccc(NC2=CC(c3ccc(F)cc3)N(c3ccc(C(=O)OCC)cc3)C2=O)cc1` (stereo not given): inactive: 68%. The figure for `CCOc1ccccc1NC(=O)c1cc2c(=O)n(Cc3cccnc3)ccc2nc1C` is inactive: 75%; for `CCCOc1cccc(C(=O)Nc2ccc(-c3cc4ccccc4oc3=O)c(C)c2)c1` it is inactive: 102%. With `Cc1c(NC(=O)c2ccc(Br)o2)cccc1-c1nc2ccccc2o1`, the survival was inactive: 74%. Next, `Cc1cccc(C)c1NC(=O)CCS(=O)(=O)c1cccc2nonc12`: inactive: 65%.

Consider `COC(=O)c1ccc(-c2nc3ccc(C)cc3o2)cc1`, for which the survival is inactive: 95%. Regarding `CCOC(=O)c1c(C)[nH]c(C)c1S(=O)(=O)N1CCC(C(=O)Nc2ccc(C)c(Cl)c2)CC1`, the survival is inactive: 63%. The figure for `CC(=O)Nc1ccc(Nc2ncnc3c2c(-c2ccccc2)cn3-c2ccc(C)c(Cl)c2)cc1` is inactive: 86%. The figure for `O=C(Cc1ccccc1)NN1C(=O)CSC1=S` is inactive: 110%; for `CCCSc1nc2sc3c(c2c(=O)n1-c1cccc(Br)c1)CC(C)(C)OC3` it is inactive: 67%. Next, `Cc1ccccc1Cn1c(SCc2ccc(C(=O)NC3CCCC3)cc2)nc2ccncc21`: inactive: 93%; `COc1ccccc1CNC(=O)CCNS(=O)(=O)c1cccc2nsnc12`: inactive: 84%. Take `Cc1nc2c(c(C)nn2-c2ccccc2)c(C)c1CCC(=O)NCCc1ccc(Cl)cc1`: the survival is inactive: 99%. Next, `COc1cccc(NC(=O)N2CCN(C(=O)c3nsc4ccccc34)CC2)c1`: inactive: 72%; `COc1ccccc1N=c1scc(-c2ccc(S(=O)(=O)N3CCCC3)cc2)n1C`: inactive: 85%; `O=C(O)CCC(=O)Nc1nc2ccccc2s1`: inactive: 104%.

As to `COc1cc(C2NC(=O)c3c(sc4c3CCN(C)C4)N2)ccc1OC(=O)c1ccccc1` (stereo not given), the survival is inactive: 80%. For `COc1ccc(NC(=O)N2CCN3CCCCC3C2)cc1OC` (stereo not given), the survival is inactive: 95%. The figure for `O=C(CCC(=O)N1CCc2ccccc21)N1CCc2ccccc21` is inactive: 105%; for `CN(c1ccccc1)N1C(=O)c2cccc3cccc(c23)C1=O` it is inactive: 119%; for `Cc1ccc(Cn2ccn(Cc3cccc(C(F)(F)F)c3)c(=O)c2=O)cc1` it is inactive: 110%. Next, `COc1cccc(NC(=O)CSc2nc3c([nH]c4ccccc43)c(=O)n2-c2cccc(Cl)c2)c1`: inactive: 68%. In the case of `C=CCOc1ccc(C2c3c(oc4ccc(C)cc4c3=O)C(=O)N2CCCN2CCOCC2)cc1` (stereo not given), the survival is inactive: 74%.

For the compound `N#C/C(=C\C1CC=CCC1)c1nc2ccccc2c(=O)[nH]1` (stereo not given), the survival is inactive: 109%. Next, `Cc1ccc(-c2ccc(=O)n(CC(=O)Nc3ccc(C(C)C)cc3)n2)cc1`: inactive: 99%; `CCOC(=O)c1ccc(NC(=O)CSc2nc(C)c(Cc3ccccc3)c(=O)[nH]2)cc1`: inactive: 80%; `Cc1ccc(-n2nc(C)c3c(C)cc(=O)n(CC(=O)NC(C)C)c32)cc1`: inactive: 119%. The figure for `CCc1cccc(CC)c1N(COC)C(=O)Cn1c(C)nc2ccccc21` is inactive: 69%. Next, `CCN(CC)CCOC(=O)c1ccc(NC(=O)CSc2cc(=O)n(CC)c3ccccc23)cc1`: inactive: 137%. Take `COc1ccccc1NC(=O)c1c(C)cc(C)nc1SCC(=O)Nc1cccc(C)c1`: the survival is inactive: 88%. `COCCNC(=O)CCn1c(=O)c2cc(OC)c(OC)cc2n(CC(=O)Nc2ccccc2OC)c1=O`: the survival is inactive: 89%. The figure for `O=C(Nc1ccc(F)c(Cl)c1)C1Cc2ccccc2CN1S(=O)(=O)c1ccc(F)cc1` (stereo not given) is inactive: 77%; for `CCc1nn(CC(=O)Nc2ccc(C)cc2C)c(=O)c2cc3sccc3n12` it is inactive: 90%. Next, `COc1ccc(Nc2ncnc3onc(-c4ccc(Cl)cc4)c23)cc1Cl`: inactive: 122%; `O=C(NCc1ccccc1)c1ccc(NC(=O)N2CCSc3ncccc32)cc1`: inactive: 119%; `COc1cc(OC)c(NC(=O)c2cnn(-c3cccc(Cl)c3C)c2C2CCN(C(=O)OC(C)(C)C)CC2)cc1Cl`: inactive: 53%. Next, `COc1ccc(-n2cc(-c3ccccc3)c3c(NCc4cccc(Cl)c4)ncnc32)cc1`: inactive: 85%; `Cc1ccc(NC(=O)c2cn(-c3ccccc3)nc2-c2ccccc2)cc1`: inactive: 110%; `CCCCn1c(SCC(=O)Nc2cccc(OC)c2)nc2ccsc2c1=O`: inactive: 159%.

As for `Cc1ccc(C2=NN(CC(=O)NC(C)c3ccccc3)C(=O)CC2)cc1` (stereo not given), the survival is inactive: 73%.

With `COc1ccc(-c2cn3nc(N4CCC(C(=O)NCc5ccc(F)cc5)CC4)sc3n2)cc1`, the survival was inactive: 78%.

Regarding `COc1ccc(NC(=O)C2CCC(CNS(=O)(=O)c3csc(C(N)=O)c3)CC2)cc1` (stereo not given), the survival is inactive: 85%. Next, `CC(C)c1ccc(Nc2c(-c3ccc(N4CCOCC4)cc3)nc3ncccn23)cc1`: inactive: 86%; `CCOC(=O)c1c(NC(=O)COc2cccc(C)c2C)sc2c1CCCCC2`: inactive: 73%; `Cc1ccc(CSc2oc(-c3ccco3)nc2S(=O)(=O)c2ccc(Cl)cc2)cc1`: inactive: 74%. The figure for `CCOC(=O)c1cccc(NC(=O)c2cc(S(=O)(=O)N3CCCC3)cn2C)c1` is inactive: 78%; for `COc1ccc(-c2onc(C)c2C)cc1S(=O)(=O)Nc1ccc(OC(F)(F)F)cc1` it is inactive: 63%; for `COC(=O)c1cc2sc(C)cc2n1Cc1ccccc1` it is inactive: 83%.

Turning to `CCCOC(=O)c1ccc(NC(=O)Cn2nnc3sc4c(c3c2=O)CCC(C(C)(C)C)C4)cc1` (stereo not given), the survival was inactive: 91%. Next, `Cc1ccc(CNC(=O)CSc2ccc(-c3sc(-c4ccccc4)nc3C)nn2)cc1`: inactive: 122%; `CCOC(=O)CNC(=O)c1cc2c(=O)n(CC)c3ccccc3c2s1`: inactive: 88%.

As to `COc1ccc(NC(=O)c2ccco2)cc1NC(=O)C(C)Oc1ccc(Cl)cc1Cl` (stereo not given), the survival is active: 6%. As for `CCOc1ccc(CCNC(=O)CN2C(=O)c3cccnc3Oc3ccc(C)cc32)cc1OCC`, the survival was inactive: 80%. Next, `COc1cccc(CNS(=O)(=O)c2c(C)nc3scc(C)n3c2=O)c1`: inactive: 131%. Next, `CC(=O)c1cc(-c2ccc(F)cc2)n(CC(=O)NC2CCCCCC2)c1C`: inactive: 81%; `CCCOc1ccc(/C=C/C(=O)Nc2sc3c(c2C(=O)OCC)CCC(C)C3)cc1OC` (stereo not given): inactive: 66%. As to `O=S(=O)(c1ccc(Br)cc1)c1nc(-c2ccco2)oc1SCc1ccccc1F`, the survival was inactive: 65%. The figure for `O=C(Nc1cccc(C(F)(F)F)c1)c1cc2nc(-c3ccccc3)cc(C(F)(F)F)n2n1` is inactive: 71%; for `CCCOc1ccc(-c2cccc(NS(=O)(=O)c3cccs3)c2)nn1` it is inactive: 71%. `O=C(Nc1ccc(NC(=O)c2cccs2)cc1)c1cccs1`: the survival is inactive: 113%. Next, `CCOc1ccccc1CNC(=O)CCCn1c(=O)c2cccn2c2cccnc21`: inactive: 109%; `CCN1/C(=C(\C#N)c2nc(C#N)c(C#N)nc2N2CCOCC2)Nc2ccccc21`: inactive: 107%; `COc1ccc(-c2cccc(NS(=O)(=O)c3cccs3)c2)nn1`: inactive: 73%. For `Clc1ccc(N2CCN(Cc3nnc(-c4ccc5c(c4)OCO5)o3)CC2)cc1`, the survival is inactive: 83%. For the compound `O=C1CSC(N(c2ccccc2)c2ccccc2)=N1`, the survival was inactive: 99%.

For the compound `COc1ccc(NC(=O)CC2Nc3cccc4cccc(c34)NC2=O)cc1` (stereo not given), the survival was inactive: 67%.

With `Cn1nnnc1SCC(=O)N1CCCc2ccccc21`, the survival was inactive: 106%. On to `COc1ccc(NC(=O)C2=C(C)Nc3c(C(=O)Nc4ccc(C)cc4)cnn3C2c2cccc(Cl)c2)cc1` (stereo not given), for which the survival was inactive: 73%. Consider `CCCCN(CC)C(=O)c1c[nH]c2ccc(S(=O)(=O)Nc3cccc(OC)c3)cc2c1=O`, for which the survival is inactive: 81%. Next, `CC(=O)N1c2ccccc2CC1C(=O)N1CCN(c2cccc(C)c2C)CC1` (stereo not given): inactive: 73%; `Cc1oc2ccc(O)c(CN3CCOCC3)c2c1C(=O)Nc1ccc(C(C)C)cc1`: inactive: 110%; `Cc1ccc2onc(CC(=O)N3CCN(c4ccccc4F)CC3)c2c1`: inactive: 96%. Take `COc1ccc(-c2cc(C)no2)cc1S(=O)(=O)N1CCN(c2ccc(C(C)=O)cc2)CC1`: the survival was inactive: 77%. The figure for `O=C(CCCn1c(=O)c2cccn2c2ccccc21)Nc1cccc(Cl)c1` is inactive: 42%. On to `Clc1ccccc1CSc1nncn2c1cc1occc12`, for which the survival is inactive: 86%. With `Cc1ccc2oc(-c3cccc(NC(=O)c4cccc5c(Br)cccc45)c3)nc2c1`, the survival is inactive: 161%.

In the case of `CCOC(=O)Cn1c2[n+](c3ccccc31)CC(O)CS2` (stereo not given), the survival was inactive: 102%.
